According to US20260284186A1, “[…] MODIFIERS FOR THE TREATMENT OF SUBJECTS WITH UNDER[…] SYSTEMS AND COMPOSITIONS THEREOF” (priority 2023, published 2026):

test system: SARS-COV-2 RBD; assay: Effect of different CDNs on the biological response, Example 10; design: species or system mice; details: mouse, in vivo

SMILES	Order of intensity of antibody response, avidity/inhibition and neutralization against SARS-COV-2
Nc1ncnc2c1ncn2[C@@H]1O[C@@H]2COP(=O)(O)O[C@H]3[C@@H](O)[C@H](n4cnc5c(N)ncnc54)O[C@@H]3COP(=O)(O)O[C@H]2[C@H]1O [CDA, cyclic bis(3′-5′) diadenylic acid]	superior responses
Nc1ncnc2c1ncn2C1OC2COP(=O)(O)OC3C(COP(=O)(O)OC2C1O)OC(n1cnc2c(=O)[nH]cnc21)C3O (stereo not drawn) [c-IAMP]	3
O=c1[nH]cnc2c1ncn2[C@@H]1O[C@@H]2COP(=O)(O)O[C@H]3[C@@H](O)[C@H](n4cnc5c(=O)[nH]cnc54)O[C@@H]3COP(=O)(O)O[C@H]2[C@H]1O [c-di-IMP]	2
